Source: paper PMC4336329 (PLoS ONE, 2015)
In all, about 310,000 compounds went through this assay and about 14,000 (4.5%) showed an effect of 50% or more. Effects have a minus sign here. Some of the results follow.

Target: human ether-à-go-go-related gene (hERG) potassium channel (human, UniProt Q12809)
Assay: primary screen, population patch clamp on CHO cells stably expressing hERG
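Also: peak tail current of the secondary pulse compared with the same well before compound.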

Sequence of human ether-à-go-go-related gene (hERG) potassium channel (Q12809 whole entry, looked up): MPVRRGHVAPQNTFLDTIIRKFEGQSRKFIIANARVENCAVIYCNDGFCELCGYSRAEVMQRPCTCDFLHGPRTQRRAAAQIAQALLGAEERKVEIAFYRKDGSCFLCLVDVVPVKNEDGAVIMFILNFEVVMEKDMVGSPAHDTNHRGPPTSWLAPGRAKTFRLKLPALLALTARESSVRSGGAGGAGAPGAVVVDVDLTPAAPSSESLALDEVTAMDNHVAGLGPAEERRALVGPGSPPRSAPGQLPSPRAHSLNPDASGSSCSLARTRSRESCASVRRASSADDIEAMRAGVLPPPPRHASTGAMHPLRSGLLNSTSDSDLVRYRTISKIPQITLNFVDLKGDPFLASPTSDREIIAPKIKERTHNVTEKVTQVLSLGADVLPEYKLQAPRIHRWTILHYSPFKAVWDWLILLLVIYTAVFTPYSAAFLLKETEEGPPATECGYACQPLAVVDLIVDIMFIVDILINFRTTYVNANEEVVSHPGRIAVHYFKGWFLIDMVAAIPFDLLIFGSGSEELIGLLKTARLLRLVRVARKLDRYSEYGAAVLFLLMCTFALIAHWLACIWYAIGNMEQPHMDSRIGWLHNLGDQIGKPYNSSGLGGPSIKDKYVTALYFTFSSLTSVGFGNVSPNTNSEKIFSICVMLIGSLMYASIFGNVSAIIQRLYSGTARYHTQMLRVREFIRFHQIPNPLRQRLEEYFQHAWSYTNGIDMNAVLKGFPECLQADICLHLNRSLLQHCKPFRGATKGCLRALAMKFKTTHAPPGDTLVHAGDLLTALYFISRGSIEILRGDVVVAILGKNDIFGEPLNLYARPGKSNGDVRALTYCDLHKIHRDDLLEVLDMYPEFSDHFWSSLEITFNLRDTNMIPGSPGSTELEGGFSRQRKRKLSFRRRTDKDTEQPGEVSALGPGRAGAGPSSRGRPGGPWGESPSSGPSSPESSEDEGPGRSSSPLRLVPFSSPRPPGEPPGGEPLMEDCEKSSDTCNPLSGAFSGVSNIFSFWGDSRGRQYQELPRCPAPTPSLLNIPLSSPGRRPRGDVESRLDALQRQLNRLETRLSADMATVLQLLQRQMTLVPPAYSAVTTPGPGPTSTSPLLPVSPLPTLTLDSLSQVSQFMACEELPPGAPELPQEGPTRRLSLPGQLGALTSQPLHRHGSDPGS

Structure (SMILES) | hERG current change (%, negative = inhibition) at 10uM
CCOC(=O)C1(C/C(C)=N/NC(N)=O)CC(C)(C)OC1=O (stereo not drawn) | 34.8%
N/C(=N\OC(=O)c1ccco1)c1ccccn1 | 24.2%
COCCNC(=O)C(c1ccc(F)cc1)N(Cc1ccccc1)C(=O)CCC(=O)Nc1nccs1 (stereo not drawn) | 0.73%
CCNC(=O)c1c(N)sc2c1CCCCC2 | 1.62%
Cc1ccc(NC(=O)C2CCCN(c3ncnc4c3nc3n4CCCCC3)C2)cc1Cl (stereo not drawn) | -6.39%
CC(C)CCNC(=O)NC(=O)CN1C(=O)NC2(CCCCC2)C1=O | -7.71%
O=S(=O)(c1ccc2ncn(O)c2c1)N1CCOCC1 | 14.1%
C/C(=N\NC(=O)CNc1cccc(C)c1)c1ccc(Br)s1 | -7.6%
O=C(c1ccc(CNS(=O)(=O)c2ccccc2)cc1)N1CCN(Cc2ccccc2)CC1 | -33%
COc1ccc(S(=O)(=O)N2CCCC2C(=O)Nc2ccc(C)cc2)cc1 (stereo not drawn) | -15.3%
O=C(CSc1ccc(Cl)cc1)Nc1ncccn1 | 0.972%
Cc1ccc(S(=O)(=O)C2(S(=O)(=O)c3ccc(C)cc3)CC2)cc1 | -3.92%
COc1ccc(Br)cc1CN(C)C(=O)c1ccc2c(c1)NC(=O)C(C)S2 (stereo not drawn) | -2.12%
CCOc1ncccc1C(=O)OCC(=O)Nc1cc(S(=O)(=O)N2CCOCC2)ccc1Cl | -33.8%
COc1ccc(C(=O)CC(=O)Nc2ccc([N+](=O)[O-])cc2)cc1 | -1.39%
COc1ccc(C)cc1S(=O)(=O)N(C)CC(=O)NC1CCCCCC1 | 6.33%
N#C/C(=C\N1CCN(Cc2ccc3c(c2)OCO3)CC1)c1nc2ccccc2s1 | -52.8%
Cc1cc(C)c(C(=O)Cn2cnc3cc([N+](=O)[O-])ccc3c2=O)cc1C | 19.2%
COc1cc2c(cc1OC)CN(Cc1cccs1)CC2 | -42.9%
COc1ccc(CNC(=O)C2COc3ccccc3O2)c(OC)c1 (stereo not drawn) | -26.4%
C=CCNc1nc(Cl)nc(NCc2ccco2)n1 | 11.4%
CSc1ccc(CN2CCN(C(=O)c3ccc([N+](=O)[O-])cc3)CC2)cc1.O=C(O)C(=O)O | -77.2%
CCOc1ccc(CCNC(=O)Cc2ccc(NC3=NC4CS(=O)(=O)CC4S3)cc2)cc1OCC (stereo not drawn) | 29.8%
O=C(O)c1ccc(NS(=O)(=O)c2ccc(Cl)c(Cl)c2)cc1O | -1.71%
